# Source: PubChem BioAssay (Tox21)
# “And” between values parts separate entries of the source, which are not always exact repeats. Identical values can stand only once. Inconclusive results, whose numbers are uncertain, are shown with a selection of clear calls. For some of these results: A potency beside an inconclusive call is a rough fit, not a confirmed value. More than one record can exist for a structure, and the calls need not agree. The source made the active and inactive calls. Unless noted, calls come from the whole dose curve; as a rule, active = well fitted curve in the direction sought with a large enough effect in the repeat runs; inconclusive = weak or mixed curves; inactive = no such curve, though single readings can be large; an effect the other way counts as inactive or inconclusive.
# Tests used:
# [1] = qHTS assay to identify small molecule antagonists of the retinoid acid receptor (RAR) signaling pathway - cell viability counter screen (AID 1159551); note: nearly all actives have a fitted effect of over 35% in size
# How it was run: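 Seed C3RL4 cells; next day add compound, then retinol to 1 uM final; incubate 6 h at 37 C; add CellTiter-Glo; read luminescence after 30 min at RT.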
# [2] = qHTS assay to identify small molecule agonists of the retinoic acid receptor (RAR) signaling pathway (AID 1159553); conditions: C3RL4 RARE luciferase reporter, agonist, 6 h; activation: at 73.3 µM (top of the series) unless noted; for activation: % is set by controls: 0 for no effect and ±100 for the full control effect
# How it was run: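 Activation of retinol signaling was monitored via a RARE luciferase reporter in C3RL4 cells. After 6 hr compound treatment at 37 C, detection reagent was added for 30 min at room temperature before luminescence reading.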
# [3] = qHTS assay to identify small molecule antagonists of the estrogen related receptor (ERR) signaling pathway - cell viability counter screen (AID 1224818);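 note: viability measured after 17.5 h of compound exposure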
# How it was run: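 In the same ERR cell assay, compound-treated wells (17.5 h, 37 C) were multiplexed with a fluorogenic viability reagent, CellTiter-Fluor, read after 30 min to flag cytotoxic substances.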
# [4] = qHTS assay to identify small molecule antagonists of the estrogen related receptor (ERR) signaling pathway (AID 1224819; note: nearly all actives have a fitted effect of over 50% in size)
# How it was run: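 qHTS in ERR cells, 2,000/well, 1536 format. Cpd (DMSO) added after 6 h settle, 18 h 37 C. One-Glo luminescence, 30 min RT.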
# [5] = system: estrogen-related receptor alpha (ERRalpha) with PGC-1alpha coactivator, human; experiment: qHTS assay to identify small molecule antagonists of the estrogen related receptor signaling pathway with the pleiotropic PPARgamma coactivator (PGC) (AID 1224821; calls by dose curve; note: nearly all actives have a fitted effect of over 50% in size)
# How it was run: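 Quantitative HTS for antagonism: PGC/ERR cells received compounds after 6 h attachment and were incubated 18 h at 37 C, with luminescence (One-Glo) as the endpoint.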
# [6] = qHTS assay to identify small molecule antagonists of the estrogen related receptor signaling pathway with the pleiotropic PPARgamma coactivator (PGC) cell viability counter screen (AID 1224822)
# How it was run: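 Compounds in DMSO, with positive and negative controls, were applied to PGC/ERR cells (2,000/well) and left 17.5 h at 37 C before CellTiter-Fluor detection.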
# [7] = qHTS assay to identify small molecule agonists of the estrogen related receptor signaling pathway with the pleiotropic PPARgamma coactivator (PGC) from Tox21 10K library (AID 1224842); note: nearly all actives have a fitted effect of over 15% in size
# How it was run: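 PGC/ERR reporter cell line, 2,000 cells per well, incubated 6 h at 37 C before 23 nL compound in DMSO was added. After 18 h at 37 C, One-Glo luminescence read following 30 min at room temperature.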
# [8] = molecular target: Thyrotropin receptor (Homo sapiens) (UniProt P16473); experiment: qHTS assay to identify small molecule agonists of the thyroid stimulating hormone receptor (TSHR) signaling pathway (AID 1224843; calls by dose curve; note: nearly all actives have a fitted effect of over 45% in size; for activation: % is set by controls: 0 for no effect and ±100 for the full control effect); conditions: TSHR-HEK293 cells, cAMP HTRF, agonist mode, 30 min; activation: at 92.4 µM (top of the series) unless noted
# Chain of UniProt P16473 (P16473 whole entry, looked up): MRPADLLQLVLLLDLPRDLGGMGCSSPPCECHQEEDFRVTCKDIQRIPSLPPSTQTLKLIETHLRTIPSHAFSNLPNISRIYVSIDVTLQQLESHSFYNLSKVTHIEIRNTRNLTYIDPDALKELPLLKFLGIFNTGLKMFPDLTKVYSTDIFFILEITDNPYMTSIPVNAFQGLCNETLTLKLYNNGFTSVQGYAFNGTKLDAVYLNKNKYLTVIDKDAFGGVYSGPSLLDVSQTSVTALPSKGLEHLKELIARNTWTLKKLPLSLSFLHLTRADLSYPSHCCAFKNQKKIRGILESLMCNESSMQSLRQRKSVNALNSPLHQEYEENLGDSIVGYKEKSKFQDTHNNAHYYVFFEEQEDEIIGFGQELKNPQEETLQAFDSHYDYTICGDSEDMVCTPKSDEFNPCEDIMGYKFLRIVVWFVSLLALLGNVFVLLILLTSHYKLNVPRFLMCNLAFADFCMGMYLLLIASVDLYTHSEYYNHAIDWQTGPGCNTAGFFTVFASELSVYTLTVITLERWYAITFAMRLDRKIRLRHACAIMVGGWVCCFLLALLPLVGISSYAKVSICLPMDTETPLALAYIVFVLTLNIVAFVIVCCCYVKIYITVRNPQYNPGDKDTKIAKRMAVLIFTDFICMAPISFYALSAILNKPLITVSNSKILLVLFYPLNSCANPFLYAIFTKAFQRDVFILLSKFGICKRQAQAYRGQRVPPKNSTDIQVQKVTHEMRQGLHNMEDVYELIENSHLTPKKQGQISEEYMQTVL
# How it was run: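 Steps: seed 800 TSHR-HEK293 cells per well; add test compound and hold 30 min at ambient temperature; dispense cAMP-d2 then anti-cAMP cryptate; incubate 1 h at ambient; measure fluorescence intensity.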
# [9] = qHTS assay to identify small molecule agonists of the hypoxia (HIF-1) signaling pathway - cell viability counter screen (AID 1224844; calls by dose curve; note: nearly all actives have a fitted effect of over 50% in size)
# How it was run: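 Multiplexed with the HRE beta-lactamase assay, this viability read used CellTiter-Glo luminescence (30 min, RT) on HRE-bla ME-180 cells treated 17 hrs with compounds in 0.5% dialyzed FBS medium.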
# [10] = qHTS assay to identify small molecule antagonists of the estrogen related receptor (ERR) signaling pathway from Tox21 library - cell viability counter screen (AID 1224834); note: nearly all actives have a fitted effect of over 30% in size
# How it was run: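 CellTiter-Fluor fluorescence measured; ERR cells; 17.5 h compound incubation at 37 C; 30 min reagent step.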
# [11] = molecular target: Luciferin 4-monooxygenase (Photinus pyralis) (UniProt P08659); experiment: qHTS assay to identify small molecule inhibitors of firefly luciferase (AID 1224835); note: nearly all actives have a fitted effect of over 25% in size
# Chain of UniProt P08659 (P08659 whole entry, looked up): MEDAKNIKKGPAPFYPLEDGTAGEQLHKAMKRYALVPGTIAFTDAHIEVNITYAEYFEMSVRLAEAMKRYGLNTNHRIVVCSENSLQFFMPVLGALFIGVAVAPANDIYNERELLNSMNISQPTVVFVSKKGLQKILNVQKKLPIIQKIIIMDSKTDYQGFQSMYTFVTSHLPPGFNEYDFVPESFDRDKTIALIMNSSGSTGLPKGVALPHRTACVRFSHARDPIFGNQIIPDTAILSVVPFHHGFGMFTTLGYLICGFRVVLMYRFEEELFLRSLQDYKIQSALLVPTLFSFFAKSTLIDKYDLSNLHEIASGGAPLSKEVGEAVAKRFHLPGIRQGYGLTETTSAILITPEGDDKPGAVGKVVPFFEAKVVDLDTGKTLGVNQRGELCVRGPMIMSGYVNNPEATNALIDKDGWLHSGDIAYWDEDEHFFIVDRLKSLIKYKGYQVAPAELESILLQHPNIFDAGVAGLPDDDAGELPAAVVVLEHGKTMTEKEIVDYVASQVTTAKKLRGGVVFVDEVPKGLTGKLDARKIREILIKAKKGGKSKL
# How it was run: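 Biochemical qHTS: compounds run as interplate titrations against purified firefly enzyme, with D-luciferin and ATP each at its KM concentration. Light output recorded by CCD imaging.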
# [12] = qHTS assay to identify small molecule antagonists of the estrogen related receptor signaling pathway with the pleiotropic PPARgamma coactivator (PGC) from Tox21 10K library - cell viability counter screen (AID 1224840; active = well fitted cell-killing curve with a large enough effect in the repeat runs, not every such curve was filed as active; inconclusive = weak or mixed curves, or effect the other way; inactive = no such curve, though single readings can be large or run the other way; note: nearly all actives have a fitted effect of over 40% in size)
# How it was run: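 Here the PGC/ERR cells serve as a cytotoxicity control: they are exposed to compounds for 17.5 hours at 37 C, and live-cell signal is quantified using CellTiter-Fluor fluorescence.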
# [13] = qHTS assay to identify small molecule agonists of the constitutive androstane receptor (CAR) signaling pathway - cell viability counter screen (AID 1224836); note: nearly all actives have a fitted effect of over 45% in size
# How it was run: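 Using CellTiter-Fluor, viability of HepG2 cells harbouring hCAR and CYP2B6-2.2kb was measured following 23 h incubation with a 15-concentration compound series plus PK11195 (0.75 uM final).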
# [14] = molecular target: Nuclear receptor subfamily 1 group I member 3 (Homo sapiens) (UniProt Q14994); experiment: qHTS assay to identify small molecule antagonists of the constitutive androstane receptor (CAR) signaling pathway (AID 1224838);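 note: HepG2 cells stably expressing hCAR with CYP2B6 luciferase reporter stimulated by CITCO; nearly all actives have a fitted effect of over 40% in size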
# Chain of UniProt Q14994 (Q14994 whole entry, looked up): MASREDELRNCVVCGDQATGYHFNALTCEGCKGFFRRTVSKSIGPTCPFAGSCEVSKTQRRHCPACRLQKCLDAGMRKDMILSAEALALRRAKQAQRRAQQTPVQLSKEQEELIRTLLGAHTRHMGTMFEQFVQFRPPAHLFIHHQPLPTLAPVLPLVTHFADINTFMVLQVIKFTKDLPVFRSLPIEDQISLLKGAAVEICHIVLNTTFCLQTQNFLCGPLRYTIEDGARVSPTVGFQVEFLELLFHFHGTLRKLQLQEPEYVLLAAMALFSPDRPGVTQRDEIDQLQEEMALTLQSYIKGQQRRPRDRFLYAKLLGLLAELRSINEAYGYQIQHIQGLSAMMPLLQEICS
# How it was run: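 Reporter luminescence was quantified after 24 h exposure of hCAR/CYP2B6-2.2kb double-stable HepG2 cells to compounds at 15 concentrations in the presence of 50 nM CITCO final.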
# [15] = qHTS assay to identify small molecule antagonists of the constitutive androstane receptor (CAR) signaling pathway - cell viability counter screen (AID 1224837); note: nearly all actives have a fitted effect of over 45% in size
# How it was run: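 Using CellTiter-Fluor, viability is scored in HepG2 cells stably carrying hCAR and a 2.2kb CYP2B6 reporter after 23 hr compound exposure across 15 concentrations, with CITCO present at 50 nM.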
# Potency is the fitted concentration of half-maximal effect; tags give direction and shape of the fitted curve or compound fluorescence and quenching.
smiles,measurement,setting,value
N=C1N=C(N)c2cc3ccccc3cc21,Potency,[1],"inconclusive: 7.7 µM [rising, full curve, poor fit]"
same,Potency,[2],"inconclusive: 17.2 µM [inhibitor, full curve]"
same,Potency,[3],active: 25.3 µM
same,Potency,[4],inconclusive: 58.8 µM [inhibitor]
same,Potency,[5],inconclusive: 17.2 µM [inhibitor]
same,Potency,[6],active: 20.9 µM
same,Potency,[7],"inconclusive: 68.6 µM [activator, single point]"
same,Potency,[8],active: 6.86 µM
same,Potency,[9],active: 15.5 µM
Clc1ccccc1C(c1ccccc1)(c1ccccc1)n1ccnc1,Potency,[1],active: 68.6 µM
same,Potency,[2],inconclusive: 68.6 µM [inhibitor]
same,Potency,[3],inactive
same,Potency,[4],active: 12.8 µM
same,Potency,[5],active: 20.3 µM
same,Potency,[6],inconclusive: 22.8 µM [cytotoxic]
same,Potency,[10],active: 27.3 µM and active: 11.9 µM
same,Potency,[11],"inconclusive: 63.3 µM [inhibitor, partial curve]"
same,Potency,[12],"inconclusive: 26.6 µM [cytotoxic, partial curve, poor fit]"
same,Potency,[8],"inconclusive: 43.3 µM [inhibitor, partial curve]"
same,Potency,[9],"active: 21.9 µM and inconclusive: 30.1 µM [cytotoxic, single point]"
O=Nc1ccc(NO)cc1,Potency,[1],"inconclusive: 80 µM [rising, partial curve, poor fit]"
same,Potency,[2],"inconclusive: 71.3 µM [activator, partial curve, poor fit]"
same,Potency,[11],inconclusive: 82.9 µM [inhibitor]
same,activation,[8],inconclusive: -0.838%
O=C1c2c(O)ccc([N+](=O)[O-])c2C(=O)c2c([N+](=O)[O-])ccc(O)c21,Potency,[1],active: 48.1 µM
same,Potency,[2],"inconclusive: 38.2 µM [inhibitor, partial curve]"
same,Potency,[10],active: 27.1 µM
same,Potency,[13],active: 24.1 µM
same,Potency,[14],active: 24.1 µM
same,activation,[8],inconclusive: -0.0167%
same,Potency,[9],active: 6.85 µM
CCCCCCCCCOC(=O)c1ccc(O)cc1,Potency,[1],inconclusive: 67.6 µM [cytotoxic]
same,Potency,[2],inactive
same,Potency,[10],active: 53.7 µM
same,Potency,[15],"inconclusive: 75.9 µM [cytotoxic, partial curve, poor fit]"
same,Potency,[12],"inconclusive: 42.7 µM [cytotoxic, partial curve, poor fit]"
same,Potency,[7],"inconclusive: 26.9 µM [activator, partial curve]"
same,Potency,[9],active: 54.2 µM
N#CSCSc1nc2ccccc2s1,Potency,[1],active: 61.1 µM
same,Potency,[2],"inconclusive: 43.3 µM [inhibitor, partial curve]"
same,Potency,[13],active: 61.1 µM
same,Potency,[15],active: 27.3 µM
same,Potency,[9],active: 6.92 µM
CC[C@H]1O[C@]2(CC[C@@H]1C)C[C@@H]1C[C@@H](C/C=C(\C)C[C@@H](C)/C=C/C=C3\CO[C@@H]4[C@H](O)C(C)=C[C@@H](C(=O)O1)[C@]34O)O2,Potency,[1],active: 68 µM
same,Potency,[2],"inconclusive: 27.1 µM [inhibitor, partial curve]"
same,Potency,[10],active: 60.6 µM
same,Potency,[13],active: 68 µM
same,Potency,[14],"inconclusive: 76.3 µM [inhibitor, single point]"
same,Potency,[9],active: 21.7 µM
CCOc1ccc([N+](=O)[O-])cc1,Potency,[1],"inconclusive: 55.3 µM [cytotoxic, partial curve, poor fit]"
same,activation,[2],inconclusive: 6.08% [phenotype inactive] [at 94.8 µM]
same,Potency,[10],"inconclusive: 55.3 µM [cytotoxic, partial curve, poor fit]"
same,Potency,[11],"inconclusive: 90.7 µM [inhibitor, partial curve, poor fit]"
same,Potency,[12],inactive
Nc1ccc2c(c1)C(=O)c1ccccc1C2=O,Potency,[1],inconclusive: 67.3 µM [cytotoxic]
same,Potency,[2],active: 338 nM and active: 273 nM
same,Potency,[11],active: 2.78 µM and active: 2.52 µM
same,Potency,[13],"inconclusive: 33.7 µM [cytotoxic, partial curve, poor fit]"
same,Potency,[15],"inconclusive: 67.3 µM [cytotoxic, partial curve, poor fit]"
same,Potency,[12],"inconclusive: 30.1 µM [cytotoxic, full curve, poor fit]"
same,Potency,[9],"inconclusive: 15.2 µM [cytotoxic, partial curve]"
